In the supplement of paper PMC10126150:
Values marked as one replicate rest on one cluster of the flow cell; about a third of the high ones do not repeat.

System: ATP
Assay: switch fluorescence ratio, 500 uM ATP over buffer (Cy3 cluster intensity, sum of 5 cycles each) (fold (ratio)); higher = stronger signal-on switching upon ATP binding; sequences stand for … in TCGTCGGCAGCGTCAGATGTGTATAAGAGACAGTTTTTTTTTTTTTTTTTTTTTTTTT…TC
Conditions: aptamer strand: ATP DNA aptamer (quencher-CACCTGGGGGAGTATTGCGGAGGAAGG + anchor), 100 nM annealed; ATP concentration: 500 uM; one replicate
Procedure, shortened: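 After annealing to 100 nM quencher-labelled ATP aptamer, Cy3-labelled switching-strand clusters on a modified Illumina MiSeq flow-cell were imaged in selection buffer. A second image followed after 15 min with 500 uM ATP at 22 °C, and five such buffer/ATP cycles were done, each separated by NaOH stripping and re-annealing. The fluorescence ratio, averaged per switch-domain sequence, is summed target-cycle over summed buffer-cycle Cy3 intensity per cluster, with clusters outside 100-1000 RFU excluded.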
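Also: ATP exposure 15 min at 22 °C before imaging.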

Sequence | switch fluorescence ratio
GATCTGCTCA | 1.01
TCCGCTGCTA | 6.36
GTATTAAGTT | 1.39
TGACTACTTG | 1.05
GAACTAAA | 1
ACCGTGTTTT | 1
ATTATATCA | 0.945
CACACAATTG | 1.03
ATATTCACG | 1.04
GTCGCCGTAG | 1.02
TAAAATTAGG | 0.987
AATATTTTAG | 1
GTTGACGGT | 0.994
AAGAAAATAT | 1.01
AGGTCGGCGC | 1.02
CAGTCCTTAT | 1.01
AACGACATGT | 1.02
TTATTAAGG | 0.958
AATCGCCGC | 1.04
CCAATTAGGA | 0.967
GCCTTATTCG | 1.03
ATCAATCAAT | 1.01
AGTCGGGACA | 1.05
ACACGAGGCC | 1.08
GGGTAATAAT | 0.974
CGCGATTCCA | 1.12

Sequence | switch fluorescence ratio
ACCATCTCAG | 1.02
GGGAGTCCTT | 0.932
GGGTTAACCG | 0.985
AGCGAATGGC | 1.11
TAGAATTCCC | 1.03
TATGGGATGC | 0.976
GTTCGTCCGT | 1.05
AGTGGCGCT | 1.03
CAGTATGGTT | 0.998
GTCGTCACA | 1.02
TCCTAAAGGT | 1.08
TTGTATGCGG | 0.913
TCGATTGTTA | 0.998
AATCCTTCCG | 3.02
GTTGAACTTA | 1
GCACAGTGTG | 1.05
GCCGTTACG | 1
TCTATCCATT | 1.03
GGAAATGCAT | 1
GAAGGGGG | 0.991
CCCCTGCATT | 3.14
TAAATCATAT | 0.975
CCTCCTCAGG | 2.19
CTCCCGGGGT | 1.5
TTCTTTAGTG | 0.974
GAGTAGAGGA | 1.07

Sequence | switch fluorescence ratio
AGCTTTGGCT | 1.03
TTTAAATACG | 1.04
ATTGTGTCGT | 0.978
TTTCGACGGG | 1
GTTACTCAAG | 1.03
AAGTAGGATA | 1.01
GGAGCATTGG | 1.22
CACATAAGGC | 1.1
GATACGAACA | 1.46
GGGGTGTCG | 1.13
AGGTGCTGGC | 1.04
CGTCGTTTTC | 1.03
ACAACATCCC | 1.02
CAAGGGGATG | 0.974
GTTCCTACCG | 1.38
GATCGCGTTA | 1
CCCATTACAG | 0.999
AGCTACTGTG | 0.98
ATGGATCGCG | 0.968
GGTCTGTTGA | 0.983
TACGGGGATA | 0.95
GGTTGACAC | 1.02
GGTCGACGTG | 0.938
AATTATCAGG | 0.97
CTAAGGAGCG | 0.955
TTTACTGTGC | 1.2

Sequence | switch fluorescence ratio
CGTCGACAGC | 0.997
GCATGCGTAA | 0.971
AACGCCTGGG | 1.03
AAATGCGATG | 0.976
TTGGAACGGC | 1.02
CTACGGGTGA | 1.03
CGTCTAGCT | 1.02
GATGGGCAAG | 1.02
GATATCGTTT | 1.02
GCCCATCTCA | 0.994
GCGGGACTCG | 1.03
AATTAAAGTG | 1.03
GCAGCCTAGA | 1
GATGGATCTC | 1.03
CTTGCCTAAC | 1.96
TACCGGGAAT | 0.985
GGCGTGCTAT | 0.991
CGTGATCGGG | 1.03
CAGTGCAGGC | 0.876
CTTCCTTGC | 2.42
AGGTTATGCT | 0.971
TTTCGGAGCA | 1.7
ACTCGCATTT | 1.52
AGTAGGGACC | 0.966
ATTTACAGTC | 1.02
CCTGGTAGTA | 1.04

Sequence | switch fluorescence ratio
GAAAGACTGT | 1.02
TCAACACAGC | 1.06
GAAGGAGGTC | 1.01
AACCATGGGC | 0.955
TAATTGTGCC | 1
TTTTGTGCGT | 1.02
TTAATGGCCC | 0.986
ACTAGACCAG | 1.05
CGCGGTCAGG | 1.03
TGATCTTTTG | 1.01
TCGTCTCGT | 0.993
CGTAAGACGC | 1.06
GGAGGTTTGC | 1
ATTGTTCAT | 1.04
AGCGTAGTGA | 1.02
TAATGTAAGA | 1.05
CTACGAC | 1.33
GTTGGTTGCA | 0.95
AATACATGGG | 0.994
TAAAATAGAA | 0.954
TACTGAAAGC | 1.05
CCGTTCGTCC | 1.26
TAATTGTAA | 0.957
GTGATATGCG | 0.985
TAAGTCTTGA | 0.972
ATCGACTAGC | 0.963

Sequence | switch fluorescence ratio
GTGCATCGGT | 0.995
ATTGGAACAA | 0.916
AGGATTGGAC | 1.01
TGACGATCTG | 1.02
TCGCGCGCGA | 0.978
CCGTGTCAAT | 4.45
GATACGACCT | 2.07
TGATCGACGC | 2.24
TCTTTATACC | 1.06
CTTTCGGGCA | 0.985
TAGTGAGATT | 1.05
AAGGATTTCA | 0.993
TGGTATTCTG | 0.987
CATTTAATGT | 1.03
GAGTATTGTC | 1.04
GTGTGGATGT | 0.985
TTTTGTCGAC | 0.985
ACCTAAAGT | 1.04
TTATGTCCTT | 1.01
GGACTTATTG | 0.972
AGATGTTCTC | 0.959
TGATAACTTT | 0.979
TTTGACTGCC | 1.3
GGCAGACTGC | 0.97
